In all, about 280,000 compounds went through this assay and about 1,100 (0.39%) were called active. This list was built around the results that the source calls inconclusive (neither active nor inactive); the mix of calls is not that of the screen. Calls follow the shape of the dose curve; as a rule, active = well fitted inhibition curve with a large enough effect; inconclusive = small, poorly fitted or top-dose-only effect, or effect the other way; inactive = flat fitted curve, though single readings scatter. No potency is given beside an inconclusive call; the fits are too rough.
target: Microtubule-associated protein tau (Homo sapiens) (UniProt P10636); assay: qHTS for Inhibitors of Tau Fibril Formation, Fluorescence Polarization; settings: K18 P301L tau heparin fibrillization, Alexa594 FP, 6 h; series mostly up to 57.7 µM; also: nearly all actives have a fitted effect of over 55% in size
UniProt P10636, sequence (P10636 whole entry, looked up, the tested form may be a part): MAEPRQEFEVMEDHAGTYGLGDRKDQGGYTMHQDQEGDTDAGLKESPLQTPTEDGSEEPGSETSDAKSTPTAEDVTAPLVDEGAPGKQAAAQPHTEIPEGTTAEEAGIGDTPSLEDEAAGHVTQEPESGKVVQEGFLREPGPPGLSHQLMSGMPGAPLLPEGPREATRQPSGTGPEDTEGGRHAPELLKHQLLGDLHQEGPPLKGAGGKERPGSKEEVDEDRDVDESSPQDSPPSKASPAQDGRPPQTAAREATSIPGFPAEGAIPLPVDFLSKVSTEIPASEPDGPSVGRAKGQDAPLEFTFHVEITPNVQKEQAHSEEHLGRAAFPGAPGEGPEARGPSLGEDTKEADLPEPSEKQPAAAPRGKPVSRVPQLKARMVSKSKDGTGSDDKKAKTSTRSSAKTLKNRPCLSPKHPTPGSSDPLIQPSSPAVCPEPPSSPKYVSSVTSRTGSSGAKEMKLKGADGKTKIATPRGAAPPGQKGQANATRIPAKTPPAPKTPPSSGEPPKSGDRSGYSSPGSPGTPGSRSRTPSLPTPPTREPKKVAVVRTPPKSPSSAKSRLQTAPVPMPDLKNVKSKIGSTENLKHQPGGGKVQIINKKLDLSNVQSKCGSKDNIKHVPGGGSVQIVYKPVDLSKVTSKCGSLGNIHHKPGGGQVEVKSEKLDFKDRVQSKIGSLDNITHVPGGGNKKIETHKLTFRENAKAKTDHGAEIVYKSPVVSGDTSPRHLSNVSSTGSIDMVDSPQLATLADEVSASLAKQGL
In short: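 Human K18 P301L fragment (15 uM unlabeled plus 0.24 uM Alexa 594-labeled) in 100 mM sodium acetate pH 7 with compound, aggregation induced by 20 uM heparin for 6 hr at 37 C. ThT (30 uM) added for 1 hr, then Alexa 594 FP read.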
% is scaled to controls: 0 for no effect and ±100 for the full control effect; potency is read from the fitted curve at half-maximal effect; tags tell the direction and shape of the fitted curve.

SMILES	Potency	activity, negative = inhibition
Cc1ccc(/C=N/Nc2nc3ccccc3s2)o1	inconclusive [activator, full curve, poor fit]	
CC(C)C1S/C(=N/N=C/c2ccco2)NC1=O (stereo unspecified)	inactive	
Cc1ccc(S(=O)(=O)c2c(N)n(CCC(C)C)c3nc4ccccc4nc23)cc1	inconclusive [inhibitor, single point]	
CCOC(=O)C1CCCN(c2c(NCCc3cccc(C)c3)c(=O)c2=O)C1 (stereo unspecified)	inactive	
COc1ccc(NS(=O)(=O)c2ccc(NS(=O)(=O)c3ccc4c(c3)OCCO4)cc2)cc1	inconclusive [inhibitor, partial curve, poor fit]	
O=C(NC1CC2CCCC(C1)N2Cc1cccs1)c1ccc([N+](=O)[O-])cc1 (stereo unspecified)	inconclusive [inhibitor, single point]	
COc1ccc(-c2cc(C(=O)Oc3ccc(C)c(C)c3)c3ccccc3n2)cc1	inconclusive [inhibitor, single point]	
CC(=O)C1=C(O)C=C2Oc3c(C(C)=O)c(O)c(C)c(O)c3[C@]2(C)C1=O	inactive	
Cc1cccn2c(=O)c3cc(C(=O)NCc4ccccc4Cl)sc3nc12	inconclusive [inhibitor, partial curve, poor fit]	
O=C(Cn1c(=O)n(Cc2ccc3c(c2)OCO3)c(=O)c2ccc(C(=O)NC3CCCCC3)cc21)Nc1ccccc1F	inconclusive [inhibitor, partial curve]	
Cc1cccc(CNc2cc(-c3ccc(N(C)C)cc3)ncn2)c1	inconclusive [activator, full curve, poor fit]	
CCC(C)NC(=O)c1c(-c2ccccc2)c(-c2ccccc2)nn(C)c1=O (stereo unspecified)	inactive	
Fc1ccc(/C=N/Nc2nc(-c3cccnc3)nc3ccccc23)cc1	inconclusive [inhibitor, partial curve, poor fit]	
COc1ccc(/C=C/C(=O)Oc2cccc(/C=N/NC(=O)c3cccc(F)c3)c2)cc1	inconclusive [inhibitor, single point]	
COc1ccccc1N1C(=O)CC(N(O)c2ccccc2)C1=O (stereo unspecified)	inactive	
Cc1c(C(=O)N2CCC(C(=O)Nc3ccc(F)cc3)CC2)sc2nc[nH]c(=O)c12	inactive	
O=c1c(Cl)c(Nc2cccc(Cl)c2)cnn1-c1nc2ccccc2s1	inconclusive [inhibitor, single point]	
Cc1nc2nc(NC(=O)c3ccc(Cl)cc3)[nH]n2c(=O)c1Cc1ccccc1	inactive	
CCOC(=O)N1CCN(S(=O)(=O)c2ccc(OC)c(OC)c2)CC1	inconclusive [inhibitor, single point]	
O=C(CSc1nc(=O)n(Cc2ccco2)c2c1CCC2)NCc1ccc(F)cc1	inactive	
CN(c1ccc(C(=O)Nc2ccc(CC#N)cc2)cc1)S(C)(=O)=O	inactive	
COc1ccc2nc(NC(=O)c3ccc(S(=O)(=O)N4CCCC(C)C4)cc3)sc2c1 (stereo unspecified)	inconclusive [inhibitor, full curve]	
Fc1ccc(F)c(C2=NNC(=NCC3CCCO3)SC2)c1 (stereo unspecified)	inconclusive [inhibitor, single point]	
O=C1C(Cc2ccccc2)NC(=S)N1Cc1ccccc1 (stereo unspecified)	inactive	

SMILES	Potency	activity, negative = inhibition
O=C1c2sc3nc4n(c(=O)c3c2CCC1Br)CCCCC4 (stereo unspecified)	inconclusive [inhibitor, single point]	
COc1ccc(-n2c(=O)c3ccc(C(=O)NCc4ccc(C)cc4)cc3n(CC(=O)Nc3ccc(C)cc3)c2=O)cc1	inconclusive [inhibitor, partial curve]	
O=C1C2C3C=CC(C3)C2C(=O)N1CN(Cc1ccccc1)CN1C(=O)C2C3C=CC(C3)C2C1=O (stereo unspecified)	inconclusive [inhibitor, full curve, poor fit]	
N#Cc1ccc(-c2csc(NC(=O)c3cc(-c4cccs4)nc4ccccc34)n2)cc1	inconclusive [inhibitor, single point]	
Cc1cccc(C2=NN(c3ccccc3)[C@H](CO)[C@H]2c2ccc(Cl)cc2)c1	inconclusive [activator, full curve, poor fit]	
O=S(=O)(c1ccc(Br)cc1)c1nnn2c1nc(NCc1cccs1)c1sccc12	inconclusive [inhibitor, partial curve]	
COc1ccc(-c2cc(C(=O)NCCc3ccccc3)c3cc(C(C)C)ccc3n2)cc1	inconclusive [activator, single point]	
O=C1CC(Sc2nnc(-c3ccccc3)o2)C(=O)N1c1ccccc1 (stereo unspecified)	inactive	
COC(=O)C1=NN(c2ccc(OC)cc2)C2C(=O)N(c3ccccc3OC)C(=O)C12 (stereo unspecified)	inactive	
O=C(O)CCC(=O)NC1CCCCC1	inactive	
COc1ccc(NC(C)=O)cc1NC(=O)c1ccc(C#N)cc1	inactive	
Cc1ccc2cc(C(c3nnnn3C3CCCC3)N3CCN(c4ccccc4)CC3)c(=O)[nH]c2c1 (stereo unspecified)	inactive	
CCN(c1ccccc1)S(=O)(=O)c1ccc(Cl)c(NC(=O)COC(=O)c2cc(O)c3ccccc3c2O)c1	inconclusive [inhibitor, single point]	
O=c1cc(-c2ccc(O)cc2)oc2ccc(O)cc12	inactive	
O=C(CSc1nc(-c2ccccc2)cn1-c1ccccc1)Nc1ccccc1	inconclusive [inhibitor, single point]	
COc1cc(-c2nc3ccc(C)cn3c2Nc2ccc(Cl)cc2)ccc1O	inconclusive [activator, full curve]	
O=C(Nc1ccccc1)Nc1nnc(Cc2ccc([N+](=O)[O-])cc2)s1	inconclusive [inhibitor, single point]	
Cc1ccc(-c2nn(CC(=O)NC3CCCCC3)c3c2cnc2ccc(F)cc23)cc1C	inactive	
COC(=O)C(C(C)=O)C(NC(=O)NCc1ccccc1)c1ccccc1 (stereo unspecified)		inactive: 4.76% [at 11.6 µM]
Cc1ccc2oc(C(=O)N(Cc3ccccc3F)C3CCS(=O)(=O)C3)c(C)c2c1 (stereo unspecified)	inactive	
Cc1nnc(SCC(=O)Nc2ccc(-c3nc4ccccc4s3)cc2)s1	inconclusive [inhibitor, single point]	
CC(=O)c1cccc(NC(=O)C(OC(=O)/C=C/c2ccc3c(c2)OCO3)c2ccccc2)c1 (stereo unspecified)	inconclusive [inhibitor, partial curve]	
CCOc1ccc2c(c1)C(C)=CC(C)(C)N2C(=O)Nc1ccccc1	inconclusive [inhibitor, single point]	
CCCNC(=O)CSc1nnc(-c2ccco2)n1C	inactive	

SMILES	Potency	activity, negative = inhibition
CC(=O)Nc1nonc1-c1nnc(SCC(=O)Nc2ccc(C)cc2C)n1C	inactive	
Cc1noc(Cn2c(=O)c3cc4c(cc3n(CC(=O)Nc3cccc(Cl)c3)c2=O)OCO4)n1	inconclusive [inhibitor, single point]	
CCOc1ccc(/C=N/NC(=O)Cc2csc(Nc3cccc(C(F)(F)F)c3)n2)c(OCC)c1	inconclusive [activator, partial curve]	
CCn1c(C)nc2cc(C(=O)NNC(=S)NC(=O)c3ccc(OC)cc3)ccc21	inactive	
CC(Oc1ccc(F)cc1F)C(=O)/C=C/N(C)C (stereo unspecified)	inconclusive [inhibitor, single point]	
Cc1cccc(C)c1-n1c(C)cc(/C=N/NC(=O)CSc2ncccn2)c1C	inconclusive [inhibitor, partial curve, poor fit]	
CCCOC(=O)C1[C@H]2C(=O)N(Cc3ccco3)C[C@]23C=C[C@H]1O3 (stereo partly specified)	inconclusive [inhibitor, full curve, poor fit]	
Cc1[nH]c2ccccc2c1/C=N/Nc1nncn1N	inactive	
Cc1cc(C)cc(-n2cc(C(=O)O)c(=O)cc2C)c1	inactive	
CCCOc1cccc(-c2cc(C(=O)NNC(=S)NCC)c3ccccc3n2)c1	inconclusive [activator, full curve]	
Cc1cc(NC(=S)Nc2cccc3ccccc23)n[nH]1	inactive	
N#C/C(=C/c1ccc(N2CCOCC2)o1)c1ccc(Br)cc1	inconclusive [inhibitor, single point]	
CC1(C)CC(=O)C2=C(C1)Nc1ccccc1N=C2	inactive	
COC(=O)/C=C/c1cc(O)ccc1O	inactive	
C=CCN1C(=O)C2(c3ccccc31)C1CCCC=C1C(C#N)=C(N)C2(C#N)C#N (stereo unspecified)	inconclusive [inhibitor, partial curve]	
Cc1nc(-c2ccc(S(=O)(=O)N3CCN(C4c5ccccc5-c5ccccc54)CC3)s2)cs1	inconclusive [inhibitor, single point]	
CCc1ccc(OC(C)C(=O)Nc2c(C(=O)c3ccccc3)oc3ccccc23)cc1 (stereo unspecified)	inconclusive [inhibitor, partial curve]	
COc1ccc(Cl)cc1NC(=O)c1cc2c(s1)-c1ccccc1OC2	inconclusive [inhibitor, partial curve]	
Cc1nn(CC(C)C)c(=S)[nH]c1=O	inactive	
Cc1ccc(S(=O)(=O)c2c(N)n(/N=C/c3ccco3)c3nc4ccccc4nc23)cc1	inconclusive [inhibitor, partial curve]	
Fc1ccc(NC(=S)Nc2cccnc2)cc1Cl	inconclusive [inhibitor, partial curve]	
Cn1c(-c2ccc(F)cc2)cnc1NCc1cccc(F)c1	inactive	
COc1ccc(-c2cc(=O)c3cc(OC)ccc3o2)cc1	inactive	

Reference: PubChem BioAssay AID1468 (National Center for Advancing Translational Sciences (NCATS), 2008)
